Test results from article PMC8300659.
Some values that stand alone complete this part of the results.

Target: Cys328 (UniProt position 328, VQSLTCEVDAL)
Test: chemical modification
Conditions: Low, 5 mM buffers with no added salt stated, 5 mM citric acid/disodium phosphate (pH 3-5.5), disodium/monosodium phosphate (pH 6-8), Tris/HCl (pH 8.5-9), sodium carbonate/bicarbonate (pH 9.5-10.8), protein and MBB diluted in 5 mM Pipes/Na pH 7.0, Reduced, DTT-free soluble vimentin, without added zinc, folded (refolded from urea), mixture of oligomeric species possible

Substance: Vimentin (Homo sapiens)
- pKa (first ionization step): 4.61 ± 0.36
- pKa (second ionization step): 7.39 ± 0.41
